Reference: paper PMC9911399, “Two distinct binding modes provide the RNA-binding protein RbFox with extraordinary sequence specificity”
Where a chain is given by its changes, count along the chain named. The list shows a part of the results.

T1: RBFOX1 RRM RbFoxmut (Fox-RRM*) (Homo sapiens, UniProt Q9NWB1 109-208, R118D;E147R;N151S;E152T)
T1 sequence: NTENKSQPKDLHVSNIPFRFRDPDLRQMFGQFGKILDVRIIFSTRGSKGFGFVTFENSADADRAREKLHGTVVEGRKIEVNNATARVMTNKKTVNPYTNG

B1: ACUGGGA (DNA:RNA)
RNA: GGGAGACCGGAAUUCAGAUUGUCCACUGGGAUUAAAUCCCGUCGUAGCCACCA
DNA 1: CAATCTGAATTCCGGTCTCCC
DNA 2: TGGTGGCTACGACGGGATT
B2: CUCUGUG (DNA:RNA)
RNA: B1 RNA with A25C, C26U, U27C, G28U, G30U, A31G
DNA 1: CAATCTGAATTCCGGTCTCCC
DNA 2: TGGTGGCTACGACGGGATT
B3: CUUCGGA (DNA:RNA)
RNA: B1 RNA with A25C, C26U, G28C
DNA 1: CAATCTGAATTCCGGTCTCCC
DNA 2: TGGTGGCTACGACGGGATT
B4: UGUUCUU (DNA:RNA)
RNA: B1 RNA with A25U, C26G, G28U, G29C, G30U, A31U
DNA 1: CAATCTGAATTCCGGTCTCCC
DNA 2: TGGTGGCTACGACGGGATT
B5: GGCACGU (DNA:RNA)
RNA: B1 RNA with A25G, C26G, U27C, G28A, G29C, A31U
DNA 1: CAATCTGAATTCCGGTCTCCC
DNA 2: TGGTGGCTACGACGGGATT
B6: GGUGCAA (DNA:RNA)
RNA: B1 RNA with A25G, C26G, G29C, G30A
DNA 1: CAATCTGAATTCCGGTCTCCC
DNA 2: TGGTGGCTACGACGGGATT
B7: AAAGGCC (DNA:RNA)
RNA: B1 RNA with C26A, U27A, G30C, A31C
DNA 1: CAATCTGAATTCCGGTCTCCC
DNA 2: TGGTGGCTACGACGGGATT
B8: UUUAGGU (DNA:RNA)
RNA: B1 RNA with A25U, C26U, G28A, A31U
DNA 1: CAATCTGAATTCCGGTCTCCC
DNA 2: TGGTGGCTACGACGGGATT
B9: AUGCGCC (DNA:RNA)
RNA: B1 RNA with C26U, U27G, G28C, G30C, A31C
DNA 1: CAATCTGAATTCCGGTCTCCC
DNA 2: TGGTGGCTACGACGGGATT
B10: AAAUAUC (DNA:RNA)
RNA: B1 RNA with C26A, U27A, G28U, G29A, G30U, A31C
DNA 1: CAATCTGAATTCCGGTCTCCC
DNA 2: TGGTGGCTACGACGGGATT
B11: GGCUGGG (DNA:RNA)
RNA: B1 RNA with A25G, C26G, U27C, G28U, A31G
DNA 1: CAATCTGAATTCCGGTCTCCC
DNA 2: TGGTGGCTACGACGGGATT
B12: GUUGAUC (DNA:RNA)
RNA: B1 RNA with A25G, C26U, G29A, G30U, A31C
DNA 1: CAATCTGAATTCCGGTCTCCC
DNA 2: TGGTGGCTACGACGGGATT
B13: AUCGGCA (DNA:RNA)
RNA: B1 RNA with C26U, U27C, G30C
DNA 1: CAATCTGAATTCCGGTCTCCC
DNA 2: TGGTGGCTACGACGGGATT
B14: UCAAAAC (DNA:RNA)
RNA: B1 RNA with A25U, U27A, G28A, G29A, G30A, A31C
DNA 1: CAATCTGAATTCCGGTCTCCC
DNA 2: TGGTGGCTACGACGGGATT
B15: GAAGAUA (DNA:RNA)
RNA: B1 RNA with A25G, C26A, U27A, G29A, G30U
DNA 1: CAATCTGAATTCCGGTCTCCC
DNA 2: TGGTGGCTACGACGGGATT
B16: UGGCCGG (DNA:RNA)
RNA: B1 RNA with A25U, C26G, U27G, G28C, G29C, A31G
DNA 1: CAATCTGAATTCCGGTCTCCC
DNA 2: TGGTGGCTACGACGGGATT
B17: GCACACA (DNA:RNA)
RNA: B1 RNA with A25G, U27A, G28C, G29A, G30C
DNA 1: CAATCTGAATTCCGGTCTCCC
DNA 2: TGGTGGCTACGACGGGATT
B18: CCGACGC (DNA:RNA)
RNA: B1 RNA with A25C, U27G, G28A, G29C, A31C
DNA 1: CAATCTGAATTCCGGTCTCCC
DNA 2: TGGTGGCTACGACGGGATT
B19: CCGCGUA (DNA:RNA)
RNA: B1 RNA with A25C, U27G, G28C, G30U
DNA 1: CAATCTGAATTCCGGTCTCCC
DNA 2: TGGTGGCTACGACGGGATT
B20: CCCCGGG (DNA:RNA)
RNA: B1 RNA with A25C, U27C, G28C, A31G
DNA 1: CAATCTGAATTCCGGTCTCCC
DNA 2: TGGTGGCTACGACGGGATT

Target: T1, RBFOX1 RRM RbFoxmut (Fox-RRM*)
Experiment: EMSA; HiTS-Eq, 1 nM pool, 10 min; buffer printed only for the single-RNA assays: 10 mM Tris pH 7.5, 150 mM NaCl, 3.4 mM EDTA, 0.001% NP-40, 30 C
Settings: tags: His6 N-terminal (pET28a); label: 5' 32P
Procedure, shortened: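 Purified wild-type or mutant RbFox RRM at increasing concentrations was equilibrated with 1 nM of 5′-radiolabelled RNA carrying 7 randomized nucleotides for 10 min in 50 µL. Unbound RNA was separated by 8% native PAGE and sequenced. Relative association constants came from read-count changes of each RNA species compared with the control reaction, normalised to the cognate motif.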

For B1, which binding signal is on record?
The binding signal was 0.0985 KA relative to UGCAUGU.

For B2, which binding signal is on record?
Its binding signal is 0.151 KA relative to UGCAUGU.

For B3, which binding signal is on record?
The binding signal was 0.0749 KA relative to UGCAUGU.

B4 was tested. Which binding signal did it give?
Its binding signal is 0.081 KA relative to UGCAUGU.

How did the binding signal turn out when B5 was run?
Its binding signal is 0.222 KA relative to UGCAUGU.

With B6 as the binder, how does the binding signal read?
Its binding signal is 0.0819 KA relative to UGCAUGU.

With B7 as the binder, how does the binding signal read?
The binding signal was 0.109 KA relative to UGCAUGU.

Which binding signal does the source give for B8 here?
The binding signal was 0.108 KA relative to UGCAUGU.

For B9, which binding signal is on record?
Its binding signal is 0.191 KA relative to UGCAUGU.

For B10, which binding signal is on record?
Its binding signal is 0.0768 KA relative to UGCAUGU.

B11 was tested. Which binding signal did it give?
The binding signal was 0.0753 KA relative to UGCAUGU.

B12 was tested. Which binding signal did it give?
Its binding signal is 0.0808 KA relative to UGCAUGU.

B13 was tested. Which binding signal did it give?
The binding signal was 0.157 KA relative to UGCAUGU.

How did the binding signal turn out when B14 was run?
The binding signal was 0.0616 KA relative to UGCAUGU.

For B15, which binding signal is on record?
Its binding signal is 0.119 KA relative to UGCAUGU.

B16 was tested. Which binding signal did it give?
Its binding signal is 0.0899 KA relative to UGCAUGU.

For B17, which binding signal is on record?
The binding signal was 0.133 KA relative to UGCAUGU.

For B18, which binding signal is on record?
The binding signal was 0.0578 KA relative to UGCAUGU.

Which binding signal does the source give for B19 here?
The binding signal was 0.12 KA relative to UGCAUGU.

For B20, which binding signal is on record?
The binding signal was 0.0656 KA relative to UGCAUGU.
